According to PubChem BioAssay AID651820 (National Center for Advancing Translational Sciences (NCATS), 2012):
About 12,000 (3.5%) of roughly 340,000 compounds were called active. The inconclusive results got no clear call from the source; some entries with a clear call stand among them for comparison. The call rests on the fitted dose curve; in most records, active means well fitted inhibition curve with a large enough effect; inconclusive means small, poorly fitted or top-dose-only effect, or another doubt; inactive means no such curve, though single readings can be large or run the other way. No potency is given beside an inconclusive call; the fits are too rough.

Test: qHTS Assay for Inhibitors of Hepatitis C Virus (HCV)
Conditions: Huh7.5.1 HCVcc-Cre (HCVcc is cell-culture hepatitis C virus) infection, luciferase reporter, 44 h; activity change, negative = inhibition: at 41.8 µM (top of the series)
In short: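 A cell-based infection assay in which seeded cells (1,000 per well) receive test compound after 4 h, are inoculated with HCVcc-Cre at approximately 0.5 moi, and are incubated 44 h before luminescence detection.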
On the % scale 0 is the no-effect control and ±100 the full control effect; potency means the concentration at half of the fitted maximal effect; tags describe the fitted curve by direction and shape.

Row | SMILES | Potency | activity change, negative = inhibition
1 | CCC(=O)Oc1ccc(C/C(=N\O)c2ccc(O)cc2O)o1 | inconclusive [inhibitor, partial curve] | –
2 | COc1cccc(OCC(=O)Nc2cc(Cl)ccc2Oc2ccccc2)c1 | inconclusive [inhibitor, full curve] | –
3 | CC(C)Cn1c(-c2csc3ccccc23)n[nH]c1=S | – | inactive: 12.6%
4 | CCOC(=O)N1CCN(C(=O)c2ccc(Cl)c(NC(=O)c3cccs3)c2)CC1 | – | inactive: 7.69%
5 | O=C(NCCCCCCNC(=O)c1ccc(Br)s1)c1ccc(Br)s1 | inconclusive [inhibitor, single point] | –
6 | OCCCNc1nc(-c2ccc(Cl)cc2)nc2ccccc12 | active: 12.6 µM | –
7 | COC(=O)C1=C(C)NC(C)=C(C(=O)OC)C1c1ccc(-c2cc(Cl)ccc2Cl)o1 | inconclusive [inhibitor, single point] | –
8 | COc1ccccc1OCCCCCc1c(C)n[nH]c1C | inconclusive [inhibitor, partial curve] | –
9 | Nc1c(-c2ccsc2)cnc2ncnn12 | – | inactive: -0.77%
10 | CN1CCN(c2ccc(-c3cccc(NC(=O)COc4ccc(Cl)cc4)c3)nn2)CC1 | inconclusive [inhibitor, single point] | –
11 | CCCn1c(/C=C/c2ccco2)nc2ccccc21 | – | inactive: -23.8%
12 | O=C(Cc1c(F)cccc1Cl)Nc1ccccc1N1CCCCC1 | inconclusive [inhibitor, single point] | –
13 | CCCCC(=O)N1CCN(c2nc(-c3ccc(F)cc3)cs2)CC1 | inconclusive [inhibitor, single point] | –
14 | O=C1NN(c2ccccc2)C(=O)/C1=C\c1ccccc1OCC(=O)N1CCOCC1 | – | inactive: 4.95%
15 | CN(CC(=O)Nc1ccc(F)c(F)c1F)C(=O)CC1OC(=O)c2ccccc21 (stereo unspecified) | inconclusive [inhibitor, full curve, poor fit] | –
16 | O=C(Nc1ccc2oc(Cc3ccc(Cl)cc3)nc2c1)c1cccnc1 | inconclusive [inhibitor, single point] | –
17 | CCOc1ccc(NC(=S)N(CCc2c(C)[nH]c3ccccc23)Cc2cccnc2)cc1 | inconclusive [inhibitor, single point] | –
18 | O=NNc1nc2ccccc2n1Cc1ccccc1 | inconclusive [inhibitor, single point] | –
19 | COc1ccc(NS(=O)(=O)c2cc(NC(=O)COc3ccccc3F)ccc2OC)cc1 | active: 11.2 µM | –
20 | CCc1ccc(Nc2n[n+](-c3ccccc3)c(-c3ccc(OCc4ccccc4)cc3)s2)cc1 | inconclusive [inhibitor, partial curve] | –
21 | CCOc1cc(Cl)c(NC(C)=O)cc1OCC | inconclusive [inhibitor, single point] | –
22 | CCCCn1c(CN2CCN(c3ccccc3)CC2)nc2c1c(=O)n(C)c(=O)n2C | active: 7.08 µM | –
23 | CCn1c(CSc2nc(C)cc(C)n2)nnc1SCC(=O)Nc1cccc2ccccc12 | inconclusive [inhibitor, partial curve] | –

Row | SMILES | Potency | activity change, negative = inhibition
24 | COc1ccccc1N1CCN(C(=O)c2cc3c(-c4ccc(Cl)cc4)nn(C)c3s2)CC1 | inconclusive [inhibitor, single point] | –
25 | C[C@]12CCC3[C@@H](CCC4=CC(=O)CC[C@@]43CO)C1CCC2=O (stereo partly specified) | inconclusive [inhibitor, partial curve] | –
26 | COc1ccc([N+](=O)[O-])cc1NC(=O)Cc1c(Cl)cccc1Cl | inconclusive [inhibitor, partial curve] | –
27 | Cn1c(=O)c2ccccc2n(CC(=O)NC2CCCC2)c1=O | – | inactive: 0.389%
28 | O=[N+]([O-])c1nn(-c2ccc3c(c2)OCCO3)n(O)c1=NC1CCN(Cc2ccccc2)CC1 | inconclusive [inhibitor, partial curve] | –
29 | Cc1ccc(NC(=O)C2(c3cccs3)CCOCC2)cc1C | – | inactive: 23.8%
30 | CCN1CCN(c2ccc(NC(=O)c3cc4ccccc4cc3OC)cc2C)CC1 | inconclusive [inhibitor, full curve] | –
31 | O=C(Nc1nc(-c2cc3ccccc3o2)cs1)c1ccc(S(=O)(=O)N2CCCC2)cc1 | inconclusive [inhibitor, partial curve] | –
32 | COc1ccccc1C(C)NC(=O)c1ccc(C)o1 (stereo unspecified) | inconclusive [inhibitor, single point] | –
33 | CC(C)c1ccc(-c2cc(C(=O)N3N=C(C(F)F)CC3(O)C(F)F)c3ccccc3n2)cc1 (stereo unspecified) | inconclusive [inhibitor, single point] | –
34 | Cn1c(SCCCC(=O)c2ccc(Br)cc2)nnc1-c1ccncc1 | inconclusive [inhibitor, single point] | –
35 | C=CCSc1nc(-c2ccc(OC)cc2)c(C#N)c(=O)n1CC=C | inconclusive [inhibitor, single point] | –
36 | Cc1c(Cc2ccccc2)c(=O)oc2cc(OCC(=O)N3CCC(C(=O)O)CC3)ccc12 | inconclusive [inhibitor, single point] | –
37 | O=S(=O)(c1ccc(Br)cc1)c1nc(-c2ccco2)oc1NCC1CCCO1 (stereo unspecified) | – | inactive: 28.3%
38 | CCOC(=O)C1CCN(S(=O)(=O)c2ccc(Cl)cc2)CC1 | – | inactive: 14.6%
39 | COc1ccc(Cl)cc1N1C(=NC(=O)C2CCCO2)SC2CS(=O)(=O)CC21 (stereo unspecified) | – | inactive: -0.268%
40 | O=C(O)COc1ccc2c(c1)O/C(=C\c1ccco1)C2=O | – | inactive: 19.7%
41 | CCn1c(SCC(=O)N(Cc2ccccc2)C2CCS(=O)(=O)C2)nc2ccccc2c1=O (stereo unspecified) | – | inactive: 12.1%
42 | COc1ccc(OCCN(C)C(=O)c2cccc(S(=O)(=O)N(C)c3ccccc3)c2)cc1 | active: 14.1 µM | –
43 | CCOC(=O)c1ccc(NC(=O)CSc2ccc(-c3ccncc3)nn2)cc1 | inconclusive [inhibitor, single point] | –
44 | COc1cc(C)c(Br)cc1S(=O)(=O)NCCN1CCOCC1 | – | inactive: -24.5%
45 | COC(C(=O)Nc1ccnn1C1CCN(Cc2ccc(CO)o2)CC1)c1ccccc1 (stereo unspecified) | – | inactive: -16.2%
46 | Cc1nc(N2CCN(c3ccccn3)CC2)c2c(C)c(C(=O)N3CCN(c4cccc(Cl)c4)CC3)sc2n1 | – | inactive: -1.49%
